{
  "source": "PubChem BioAssay AID1159614",
  "about": "(National Center for Advancing Translational Sciences (NCATS), 2016)",
  "note": "The whole screen tested about 45,000 compounds, of which about 65 (0.1%) were called active. The shares of active, inactive and inconclusive entries below differ from those in the screen. The call rests on the fitted dose curve; in most records, active means well fitted activation curve with a large enough effect; inconclusive means small, poorly fitted or top-dose-only effect; inactive means no such curve, though single readings can be large or run the other way. Potencies beside an inconclusive call are fits to weak or partial responses and may not hold up. Potency means the concentration at half of the fitted maximal effect; tags describe the fitted curve by direction and shape.",
  "data": [
    {"target": "Galactocerebrosidase (Homo sapiens) (UniProt P54803)", "sequence (P54803 whole entry, looked up)": "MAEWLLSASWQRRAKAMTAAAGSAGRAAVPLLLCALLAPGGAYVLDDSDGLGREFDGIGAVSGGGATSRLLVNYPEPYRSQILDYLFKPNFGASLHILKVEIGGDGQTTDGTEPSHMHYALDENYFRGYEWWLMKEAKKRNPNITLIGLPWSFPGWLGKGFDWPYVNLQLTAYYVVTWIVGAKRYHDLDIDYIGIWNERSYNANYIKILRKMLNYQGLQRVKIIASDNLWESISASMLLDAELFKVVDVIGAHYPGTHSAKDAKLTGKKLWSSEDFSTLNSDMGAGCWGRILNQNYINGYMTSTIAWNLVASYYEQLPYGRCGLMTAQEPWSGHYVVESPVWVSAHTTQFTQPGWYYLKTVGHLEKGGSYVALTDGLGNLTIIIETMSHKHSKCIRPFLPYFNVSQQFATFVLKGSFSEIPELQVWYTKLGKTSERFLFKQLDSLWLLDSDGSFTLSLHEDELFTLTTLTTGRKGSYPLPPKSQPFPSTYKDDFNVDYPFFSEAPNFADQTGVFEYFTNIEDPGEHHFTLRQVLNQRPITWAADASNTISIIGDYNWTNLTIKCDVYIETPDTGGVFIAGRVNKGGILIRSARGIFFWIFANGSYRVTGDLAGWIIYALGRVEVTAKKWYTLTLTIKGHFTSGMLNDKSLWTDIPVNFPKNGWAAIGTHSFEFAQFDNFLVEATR", "assay": "A Novel Cell-Based Assay to Identify Small Molecules for B -Galactocerebrosidase; further: nearly all actives have a fitted effect of over 65% in size; on activation: 0% is about no effect", "conditions": "145M-Twi-hGALC-G270D cells (Twitcher mouse brain line with human GALC G270D), HMU-beta-Gal fluorescence, 48 h; activation: at 57.5 µM (top of the series)", "in_short": "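Brain-derived Twitcher mouse 145M-Twi cells stably expressing human GALC-G270D or wild-type GALC, treated live, then residual GALC activity read by fluorescence of HMU-b-Gal substrate (0.1 mM final) in citrate-phosphate buffer pH 5.2 with sodium taurocholate. Signal increase indicates enhancement.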", "values": [
      {"smiles": "Cc1cc2ccccc2n1CCNC(=O)c1cc(C(F)(F)F)cc(C(F)(F)F)c1", "Potency": "inconclusive: 2.82 µM [activator, single point]"},
      {"smiles": "CCC(C)NC(=O)c1sc2nc(C)c(C(=O)Nc3ccc(Cl)cc3)c(-c3ccc(Br)cc3)c2c1N", "note": "(stereo unspecified)", "Potency": "inconclusive: 39.8 µM [activator, single point]"},
      {"smiles": "CCc1cccc(C)c1NC(=O)c1cc(S(=O)(=O)N2CCC3(CC2)OCCO3)ccc1F", "Potency": "inconclusive: 0.398 µM [activator, full curve]"},
      {"smiles": "COc1cc(OC)c(NC(=O)c2cc3c(=O)oc4ccc(C)cc4c3s2)cc1Cl", "activation": "inconclusive: -30.6% [activator]"},
      {"smiles": "CCC(C(=O)Nc1cccc(-c2cn3cccnc3n2)c1)c1ccccc1", "note": "(stereo unspecified)", "Potency": "inconclusive: 39.8 µM [activator, single point]"},
      {"smiles": "CCOc1cc(CNc2ccc(O)cc2)cc(Br)c1OCc1ccccc1", "activation": "inactive: 7.11%"},
      {"smiles": "CCCN(C(=O)c1cc2c(Cl)nc3ccccc3c2s1)c1cccc(C)c1", "Potency": "inconclusive: 1.58 µM [activator, partial curve]"},
      {"smiles": "Cc1ccc(NC(=O)n2ncc3c(C)cccc32)c(C)c1", "Potency": "inconclusive: 31.6 µM [activator, single point]"},
      {"smiles": "CCn1c(=O)cc(OCC(=O)Nc2ccccc2Cl)c2ccccc21", "Potency": "inconclusive: 39.8 µM [activator, single point]"},
      {"smiles": "COc1ccccc1NC(=O)Cn1c(=O)n(Cc2cccs2)c(=O)c2cccnc21", "Potency": "inconclusive: 0.178 µM [activator, full curve]"},
      {"smiles": "COc1ccccc1NC(=O)c1sc2nc3c(cc2c1N)CCCCCC3", "Potency": "active: 11.2 µM"},
      {"smiles": "Oc1ccc(-c2nc3ccc(Cl)cn3c2Nc2ccc(Cl)cc2)cc1", "Potency": "inconclusive: 15.8 µM [activator, partial curve]"},
      {"smiles": "CCCCNC(=O)c1cnn2c(C)c(Cc3c(F)cccc3Cl)c(C)nc12", "activation": "inconclusive: 50.4% [activator]"},
      {"smiles": "Cc1ccc(NC(=O)c2sc3ncnc(N(C)C4CCCCC4)c3c2C)cc1", "Potency": "inconclusive: 28.2 µM [activator, single point]"},
      {"smiles": "CC(C)(C)NC(=O)N1CCC(C(=O)O)CC1", "Potency": "inconclusive: 39.8 µM [activator, single point]"},
      {"smiles": "CCCC(=O)NCC1(N(C)C)CCCCC1", "Potency": "inconclusive: 39.8 µM [activator, partial curve, poor fit]"},
      {"smiles": "Cc1cn2c(=O)cc(COc3ccccc3NC(=O)c3ccco3)nc2s1", "Potency": "inconclusive: 15.8 µM [activator, partial curve]"},
      {"smiles": "O=C(CN1C(=O)COc2ccc(S(=O)(=O)N3CCCCC3)cc21)NCc1ccc(F)cc1", "Potency": "inconclusive: 31.6 µM [activator, single point]"},
      {"smiles": "O=C(Nc1ccc(N2CCC(N3CCCCC3)CC2)c(C(=O)O)c1)c1ccc(Br)cc1", "activation": "inconclusive: 55.4% [activator]"},
      {"smiles": "CCc1c(C)c2ccc3c(c2oc1=O)CN(Cc1ccccc1)CO3", "Potency": "active: 25.1 µM"},
      {"smiles": "Cc1cccc(N2CCN(S(=O)(=O)c3ccc4c(c3)CCCN4C(=O)C3CCC3)CC2)c1C", "Potency": "inconclusive: 31.6 µM [activator, single point]"},
      {"smiles": "COc1ccccc1-c1noc(-c2ccc(N3CCN(c4ccccc4)CC3)c([N+](=O)[O-])c2)n1", "activation": "inactive: -10.5%"},
      {"smiles": "COc1ccc(C)cc1Nc1c2c(nc3ccccc13)CCC2", "activation": "inactive: -14.3%"},
      {"smiles": "O=C(Nc1ccc(C(=O)OCc2cc(=O)n3nc(C4CC4)sc3n2)cc1)c1cccc(Cl)c1", "Potency": "inconclusive: 39.8 µM [activator, single point]"},
      {"smiles": "CCCCCn1c(=O)[nH]c2cc(C(=O)N3CCN(c4cccc(OC)c4)CC3)ccc2c1=O", "activation": "inactive: -7.04%"},
      {"smiles": "CC(C)(C)C(=O)Nc1ccc2nc(SCC(=O)N3CCc4ccccc43)sc2c1", "Potency": "inconclusive: 0.178 µM [activator, full curve, poor fit]"},
      {"smiles": "Cc1nc2c(C(=O)NCCc3ccc(Cl)cc3)c[nH]n2c(=O)c1Cc1ccc(Cl)cc1", "activation": "inactive: -18.5%"},
      {"smiles": "Cc1noc(C)c1S(=O)(=O)N1CCC(C(=O)Nc2ccc(Br)cc2)CC1", "activation": "inactive: -13.5%"},
      {"smiles": "Cc1cc(N2CCC(C)CC2)nc2ccc(NC(=O)Cc3ccccc3Br)cc12", "Potency": "inconclusive: 31.6 µM [activator, single point]"},
      {"smiles": "COc1ccc(CNC(=O)c2c(O)nc3c(C)cccn3c2=O)cc1", "Potency": "inconclusive: 35.5 µM [activator, single point]"},
      {"smiles": "COc1cc2cc(CNc3ccccc3)c(=O)n(CC(=O)Nc3cccc(Cl)c3C)c2cc1OC", "Potency": "inconclusive: 39.8 µM [activator, single point]"},
      {"smiles": "COc1cccc(CCNC(=O)c2c(O)nc3c(C)cccn3c2=O)c1", "Potency": "inconclusive: 39.8 µM [activator, single point]"},
      {"smiles": "COC(=O)c1c(N)n(-c2ccc(OC)c(OC)c2)c2nc3ccccc3nc12", "Potency": "inconclusive: 22.4 µM [activator, partial curve]"},
      {"smiles": "COc1ccccc1C(=O)Oc1c(Sc2ccccc2)c(C)nn1C(C)(C)C", "Potency": "inconclusive: 7.08 µM [activator, single point]"},
      {"smiles": "COc1ccc(/C=C/c2nc(C#N)c(NCc3ccc(F)cc3)o2)cc1OC", "Potency": "inconclusive: 3.55 µM [activator, single point]"},
      {"smiles": "Cc1ccccc1Nc1c(-c2cc(Br)ccc2F)nc2ccccn12", "Potency": "inconclusive: 1 µM [activator, full curve, poor fit]"},
      {"smiles": "COCCNc1nc2c(c(=O)n(Cc3cccc(Br)c3)c(=O)n2C)n1C", "Potency": "inconclusive: 31.6 µM [activator, single point]"},
      {"smiles": "COc1cc(NC(=O)CSc2nc3nc(C)c(Cc4ccc(C)cc4)c(C)n3n2)cc(OC)c1", "activation": "inconclusive: 35.5% [activator]"},
      {"smiles": "COc1ccc(OC)c(NC(=O)Cn2c(=O)n(Cc3ccccc3)c(=O)c3ccccc32)c1", "Potency": "inconclusive: 39.8 µM [activator, single point]"},
      {"smiles": "CCCCN(CCCC)CC(O)Cn1cc(/C=C/C(=O)c2ccccc2)c2ccccc21", "note": "(stereo unspecified)", "Potency": "inconclusive: 39.8 µM [activator, single point]"},
      {"smiles": "Cc1ccc(C)c(S(=O)(=O)c2cn(Cc3ccccc3)c3cc(F)c(F)cc3c2=O)c1", "Potency": "inconclusive: 39.8 µM [activator, single point]"}
    ]}
  ]
}
